Measurements taken from PubChem BioAssay AID504832 (National Center for Advancing Translational Sciences (NCATS), 2011).
Where “and” joins values, the source holds several entries; their conditions need not be identical. Equal values may be shown once. Hit rate of the full screen: of about 310,000 compounds, about 18,000 (5.8%) were called active. Inconclusive results, whose numbers are uncertain, are shown with a selection of clear calls. Calls follow the shape of the dose curve; as a rule, active = well fitted inhibition curve with a large enough effect; inconclusive = small, poorly fitted or top-dose-only effect, or another doubt; inactive = no such curve, though single readings can be large or run the other way. Potencies of inconclusive entries are doubtful fits and often do not repeat.

assay: Primary qHTS for delayed death inhibitors of the malarial parasite plastid, 48 hour incubation; details: P. falciparum luciferase growth in erythrocytes; series mostly up to 28.7 µM
Summary of the method: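 Parasite viability was followed by luminescence of a genomically integrated firefly luciferase. Cultures held 0.1% parasitemia at 2% hematocrit (final), incubated under 5% CO2 at 37 C.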
Potency is read from the fitted curve at half-maximal effect; tags tell the direction and shape of the fitted curve.

SMILES	Potency
COC(=O)c1cc(NC(=O)c2cc(C)oc2C)cc(C(=O)OC)c1	inconclusive: 18.5 µM [inhibitor, single point]
CCc1cc2c(=O)n(Cc3ccccc3)c(SC3CCOC3=O)nc2s1 (stereo not given)	inactive
COc1ccc(/C=C/C(=O)N(C(C)C)C(C)C)cc1Br	active: 6.57 µM
CCc1cccc(NC(=O)c2ccc(CNc3c(N4CCCC4)c(=O)c3=O)cc2)c1	inconclusive: 1.04 µM [inhibitor, full curve]
Cc1cccc(/C=C2/Sc3ccc(C(=O)NCCCN4CCOCC4)cc3NC2=O)c1	inconclusive: 5.22 µM [inhibitor, partial curve]
Cc1ccc(N2C(=O)CSC2c2ccccn2)cc1Cl (stereo not given)	inconclusive: 0.0033 µM [inhibitor, full curve, poor fit]
COc1ccc(C(=O)OC(C(=O)c2ccc(C)cc2)c2ccccc2)cc1 (stereo not given)	inconclusive: 6.57 µM [inhibitor, single point]
Cc1ccc(C)c(S(=O)(=O)N2CCCCC2CCNC(=O)C(=O)NCc2ccccn2)c1 (stereo not given)	inconclusive: 13.1 µM [inhibitor, single point]
Cc1ccccc1NC(=O)COC(=O)CCC(=O)c1cccs1	inconclusive: 11.7 µM [inhibitor, partial curve, poor fit]
Cc1ccc(C)c(S(=O)(=O)Nc2ccc(C(=O)NCC(c3ccco3)N(C)C)cc2)c1 (stereo not given)	inconclusive: 11.7 µM [inhibitor, single point]
CCc1noc(C)c1C(=O)Nc1ccc(Cl)c(S(=O)(=O)N2CCCCC2)c1	active: 9.28 µM
Cc1ccc(CN2C3CCCC2CC(NC(=O)Nc2cccc(F)c2)C3)cc1 (stereo not given)	active: 1.85 µM
O=C(CCl)N(c1ccccc1)c1c[nH]c2ccccc12	active: 1.65 µM
Cn1ncc(N2CCN(C(=O)c3ccc(Cl)cc3)CC2)c(Cl)c1=O	inactive
COc1ccccc1/C=C/c1nc(C#N)c(N(C)C)o1	inactive
CCOc1ccccc1NC(=S)N1CCC(NC(=O)NC23CC4CC(CC(C4)C2)C3)CC1	inactive
CCCCC(C(=O)NC1CCCC1)N(C(=O)c1snc(C(N)=O)c1N)c1ccc(F)cc1 (stereo not given)	inconclusive: 10.4 µM [inhibitor, single point]
CN(Cc1ccccc1)C(=O)COC(=O)c1cc(S(=O)(=O)N(C)C)ccc1N1CCCC1	active: 9.28 µM
Clc1ccccc1-c1ncc2ccccn12	inconclusive: 0.415 µM [inhibitor, partial curve, poor fit]
O=C(Nc1ccc(F)cc1)C1CCCCC1	inactive
Cc1nc(C)c(C(=O)C2=C(O)C(=O)N(CCN3CCOCC3)C2c2ccco2)s1 (stereo not given)	inactive
CC1CCN(C(=O)c2ccccc2NC(=O)c2cccs2)CC1	inconclusive: 9.28 µM [inhibitor, single point]
COc1ccc(CCC(=O)Nc2ccc(C(=O)c3ccncc3)cc2)cc1	inactive
COc1ccc(N(CC(=O)Nc2ccccc2Cl)S(=O)(=O)c2ccc(C)cc2)cc1OC	inconclusive: 13.1 µM [inhibitor, partial curve]

SMILES	Potency
Cc1cccc(N=Nc2ccc(O)c3ncccc23)c1	active: 1.85 µM
O=C(NCC1CCCO1)c1cc([N+](=O)[O-])ccc1N1CCC(Cc2ccccc2)CC1 (stereo not given)	active: 11.7 µM
Cc1cc(NC(=O)c2cnn3c(C(F)F)cc(C4CC4)nc23)no1	inactive
CC(C(=O)Nc1cccc(S(=O)(=O)N2CCOCC2)c1)N1CCN(C)CC1 (stereo not given)	inactive
Cn1c(=O)oc2cc(S(=O)(=O)N3CCCC(C(=O)NCC4COc5ccccc5O4)C3)ccc21 (stereo not given)	inconclusive: 13.1 µM [inhibitor, partial curve]
c1csc(-c2noc(COc3ccc4c(c3)CCCC4)n2)c1	inactive
CC(NC(=O)c1ccccc1NC(=O)c1ccncc1)c1ccccc1 (stereo not given)	inconclusive: 18.5 µM [inhibitor, single point]
COc1ccccc1CNC(=O)CSc1nc2ccccc2c(=O)n1CCCN1CCOCC1	inconclusive: 13.1 µM [inhibitor, partial curve]
C[n+]1ccccc1N1CCN(c2ccccc2Cl)CC1	active: 4.65 µM
Cc1ccccc1NC1=NCC(c2ccc([N+](=O)[O-])cc2)S1 (stereo not given)	inconclusive: 2.08 µM [inhibitor, partial curve, poor fit]
Cc1ccc2nc(CSc3nnc(Cc4cccs4)n3C3CCCCC3)cc(=O)n2c1	inconclusive: 13.1 µM [inhibitor, single point]
Cc1ccc(N2C(=O)NC(=O)/C(=C\c3cc(C)n(-c4cc(C(=O)O)cc(C(=O)O)c4)c3C)C2=O)cc1	inactive
O=C1COc2ccc(C(=O)COC(=O)c3ccc(S(=O)(=O)C(F)F)cc3)cc2N1	inconclusive: 20.8 µM [inhibitor, partial curve, poor fit]
CCn1c(SCC(=O)Nc2ccc(OC)cc2)nc2c(c1=O)SCC2	inactive
CCc1nnc(NS(=O)(=O)c2ccc(N/C=C\C(=O)c3cccc4ccccc34)cc2)s1	inactive
Cc1ccc(NC(NC(=O)c2ccccn2)C(Cl)(Cl)Cl)cc1 (stereo not given)	inconclusive: 8.28 µM [inhibitor, partial curve, poor fit]
O=C(C[n+]1ccn(CCCNP2(=O)C=C(c3ccccc3)OC(c3ccccc3)=C2)c1)c1ccccc1	inconclusive: 3.29 µM [inhibitor, full curve, poor fit]
CC1CCN(S(=O)(=O)N2CCC(C(=O)NCc3cccs3)CC2)CC1	inconclusive: 7.38 µM [inhibitor, partial curve]
CSc1ccccc1C(=O)N1CCC(n2nccc2NC(=O)C(C)(C)C)CC1	inconclusive: 18.5 µM [inhibitor, partial curve, poor fit]
Cc1nn(C)c(C)c1S(=O)(=O)NC1CCCC1	inconclusive: 4.15 µM [inhibitor, single point]
CC(=O)Nc1ccc(S(=O)(=O)N2CCCC2C(=O)Nc2ccc3c(c2)OCCO3)cc1 (stereo not given)	inactive
CC(Sc1nc(-c2ccc(F)cc2)cs1)C(=O)N1c2ccccc2CC1C (stereo not given)	inconclusive: 10.4 µM [inhibitor, partial curve]
CCN1CCN(c2cc3c(cc2F)c(=O)c(C(=O)O)cn3C2CC2)CC1	inconclusive: 13.5 µM [inhibitor, partial curve] and inconclusive: 6.57 µM [inhibitor, partial curve, poor fit]
COc1ccccc1COCC(O)CN(Cc1ccco1)Cc1ccccc1O (stereo not given)	active: 8.28 µM

SMILES	Potency
O=C(c1ccc2c(c1)OCO2)N1CCN(S(=O)(=O)c2ccc(Br)cc2Cl)CC1	inconclusive: 16.5 µM [inhibitor, single point]
CCSc1nc(N)nc(-c2cccs2)c1C#N	inactive
CC(=O)Nc1cccc(C(=O)/C=C/c2ccc(/C=C/C(=O)c3cccc(NC(C)=O)c3)cc2)c1	active: 2.94 µM
C#CCOCCOCCOCCNc1nc(N2CCN(C(=O)CCCCCCCCCCNC(=O)[C@@H](CCSC)n3cc(CCO)nn3)CC2)nc(N2CCN(C(=O)CCCCCCCCCCNC(=O)[C@H]([C@@H](C)CC)n3cc(CCCCCN)nn3)CC2)n1	active: 1.65 µM
CC(C)COc1nc2ccccc2nc1N1CCN(C)CC1	inconclusive: 18.5 µM [inhibitor, single point]
Cc1c(C(=O)NCCSCc2cccc(C(F)(F)F)c2)cnn1-c1ccc(F)cc1	inconclusive: 14.7 µM [inhibitor, partial curve, poor fit]
CC(=O)Nc1ccc(S(=O)(=O)NCC(=O)OCC(=O)NCc2ccco2)cc1	inconclusive: 18.5 µM [inhibitor, single point]
CSCCC(NC(=O)c1ccco1)C(=O)NCC(C)(C)N1CCOCC1 (stereo not given)	inactive
COC(=O)c1ccccc1NC(=O)C1CCN(C(=O)N2CCOc3ccccc32)CC1	inconclusive: 11.7 µM [inhibitor, single point]
COc1cccc(/C=N/NC(=O)CSc2ccccc2C)c1O	inconclusive: 18.5 µM [inhibitor, single point]
CCOC(=O)N1CCN(C(=O)Nc2ccc3nc(-c4ccccn4)c(-c4ccccn4)nc3c2)CC1	inactive
Cc1cc2nc(-c3ccc(SCC(=O)N4CCc5ccccc54)nc3)[nH]c2cc1C	inconclusive: 1.17 µM [inhibitor, full curve, poor fit]
O=C(c1ccc2c3c(cccc13)CC2)C1CCCN(CC2CC2)C1 (stereo not given)	inconclusive: 18.5 µM [inhibitor, single point]
O=C(CN(CCCN1CCOCC1)C(=O)Cn1nnc(-c2ccc(F)cc2)n1)NC1CCCCC1	inactive
CC12CCC(C/C1=N/O)C2(C)CBr (stereo not given)	inactive
CNC(=S)N/N=C/c1cn(Cc2ccc(C)cc2)c2ccccc12	inconclusive: 8.28 µM [inhibitor, single point]
CC(=O)c1c(C)[nH]c(C(=O)CSc2nnc(C)s2)c1C	inactive
CCCC[C@@H]1CNCCN1CCCc1cc(OC)c(OC)c(OC)c1	inconclusive: 13.1 µM [inhibitor, single point]
Cc1ccc(-c2cc(C(=O)N/N=C/c3ccco3)[nH]n2)cc1	active: 11.7 µM
CC(=O)Oc1ccc(-c2cccc(C(=O)N3CCCCC3)c2)cc1	inconclusive: 0.0586 µM [inhibitor, full curve, poor fit]
COc1nc(Cc2ccc(Cl)cc2)nc2ccccc12	inconclusive: 3.7 µM [inhibitor, partial curve]
Cc1nc2ccccc2c(=O)n1C1CCCCCC1	inconclusive: 18.5 µM [inhibitor, single point]
